# “And” between values parts separate entries of the source, which are not always exact repeats. Equal values may be shown once. About 620 (0.23%) of roughly 270,000 compounds were called active. Inconclusive results, whose numbers are uncertain, are shown with a selection of clear calls. The call rests on the fitted dose curve; in most records, active means well fitted inhibition curve with a large enough effect in the polarisation, with a control signal flat (not every such curve was filed as active); inconclusive means small, poorly fitted or top-dose-only effect, or effect the other way, or a change in a side signal; inactive means no such curve, though single readings can be large or run the other way; the % refers to the polarisation. Where the call is inconclusive, the potency comes from a doubtful curve fit. “Side channel” marks fits to a control or component signal instead of the main read-out.
# Target: Menin (Homo sapiens) (UniProt O00255)
# Sequence of UniProt O00255 (O00255 whole entry, looked up): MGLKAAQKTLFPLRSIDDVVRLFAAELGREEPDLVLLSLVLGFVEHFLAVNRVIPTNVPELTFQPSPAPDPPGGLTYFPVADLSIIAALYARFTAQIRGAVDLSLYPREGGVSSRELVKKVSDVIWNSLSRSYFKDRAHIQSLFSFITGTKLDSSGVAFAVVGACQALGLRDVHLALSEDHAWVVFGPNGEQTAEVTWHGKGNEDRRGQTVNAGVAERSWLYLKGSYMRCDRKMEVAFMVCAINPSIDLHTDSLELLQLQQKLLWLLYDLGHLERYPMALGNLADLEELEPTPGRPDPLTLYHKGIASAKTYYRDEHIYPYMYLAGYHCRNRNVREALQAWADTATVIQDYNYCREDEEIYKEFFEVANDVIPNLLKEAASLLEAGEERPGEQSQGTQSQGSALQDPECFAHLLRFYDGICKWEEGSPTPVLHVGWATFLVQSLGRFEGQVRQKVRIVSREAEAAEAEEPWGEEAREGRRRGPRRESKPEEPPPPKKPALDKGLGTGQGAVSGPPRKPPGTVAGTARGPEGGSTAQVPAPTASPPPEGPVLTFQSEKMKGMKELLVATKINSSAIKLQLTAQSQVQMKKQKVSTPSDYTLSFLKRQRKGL
# Assay: qHTS Assay for Inhibitors Targeting the Menin-MLL Interaction in MLL Related Leukemias: Competition With Texas Red Labeled MLL-derived Mutant Peptide
# Conditions: fluorescence polarization; series mostly up to 61.6 µM
# Potency means the concentration at half of the fitted maximal effect; tags describe the fitted curve by direction and shape or compound fluorescence and quenching.
row,Structure (SMILES),Potency
1,O=C(Cc1ccc(F)cc1)Nc1ccc(S(=O)(=O)N2CCCCC2)cc1,"inconclusive: 10 µM [quencher, side channel, partial curve]"
2,CC1(C)CC(=O)c2sc(NS(=O)(=O)c3cc(Cl)ccc3Cl)nc2C1,"inconclusive: 31.6 µM [quencher, side channel, partial curve]"
3,CC(=O)c1ccc(NC(=O)C(C)OC(=O)c2ccc(NS(=O)(=O)c3ccc(F)c(F)c3)cc2)cc1 (configuration not stated),"inconclusive: 12.6 µM [quencher, side channel, partial curve]"
4,COc1ccc(N=C2S/C(=C\c3ccco3)C(=O)N2CC(C)C)cc1,"inconclusive: 39.8 µM [quencher, side channel, single point]"
5,CN(C1=C(N2CCOCC2)C(=O)c2ccccc2C1=O)c1ccccc1,inactive
6,COc1ccc(Cl)c(NC(=O)Cn2nnc(-c3ccccc3N)n2)c1,"inconclusive: 3.16 µM [quencher, side channel, full curve]"
7,CCCCCCCCOc1c(OC)cc(/C=C/C(=O)N2CCN(c3ccc(C)c(C)c3)CC2)cc1OC,"inconclusive: 0.794 µM [inhibitor, full curve]"
8,Cc1cc(C)nc(Nc2n[nH]c(-c3ccccc3Br)n2)n1,"inconclusive: 7.94 µM [inhibitor, single point]"
9,CN1CCc2ccc3c4c2[C@]1(C)Cc1cccc(c1-4)OCO3,"inconclusive: 35.5 µM [inhibitor, single point]"
10,Cc1cc2ccccc2n2c(SCC(=O)N3CCc4ccccc4C3)nnc12,"inconclusive: 39.8 µM [inhibitor, single point]"
11,O=C(NNC(=S)Nc1ccc(Cl)cc1Cl)c1ccc(N2CCOCC2)c([N+](=O)[O-])c1,"inconclusive: 28.2 µM [quencher, side channel, partial curve]"
12,CCOc1cc(CNC2CCCC2)cc(Cl)c1OCc1ccccc1,"inconclusive: 11.2 µM [fluorescent, side channel, partial curve]"
13,Cc1cccc(NC(=O)NCCc2c[nH]c3ccccc23)c1,"inconclusive: 39.8 µM [quencher, side channel, single point]"
14,Cc1ccc(NC(=O)Cn2nc(C)c([N+](=O)[O-])c2C)cc1Cl,"inconclusive: 12.6 µM [quencher, side channel, partial curve]"
15,Cc1snc(SCC(=O)c2ccc(Cl)cc2)c1C#N,"inconclusive: 31.6 µM [quencher, side channel, single point]"
16,CN(Cc1ccccc1)C(=O)C1CCN(S(=O)(=O)c2ccc3nc4c(c(C(=O)O)c3c2)CCCC4)CC1,"inconclusive: 17.8 µM [quencher, side channel, single point]"
17,O=C(NC(=S)Nc1cccc([N+](=O)[O-])c1)C1CCCC1,"inconclusive: 31.6 µM [quencher, side channel, single point]"
18,CC(=O)Nc1cc(-c2ccccc2)nn1Cc1ccc(Cl)cc1,"inconclusive: 39.8 µM [quencher, side channel, single point]"
19,Cc1cccc(C(=O)O/N=C(\c2ccccc2)c2cccnc2)c1,"inconclusive: 39.8 µM [fluorescent, side channel, single point]"

row,Structure (SMILES),Potency
1,O=C(/C=C/c1ccco1)Nc1ccc(N2CCCC2)cc1,"inconclusive: 39.8 µM [quencher, side channel, single point]"
2,CN(C)S(=O)(=O)c1ccc(C(=O)NCc2cccs2)cc1,"inconclusive: 0.708 µM [inhibitor, full curve, poor fit]"
3,CCN(CC)CCCC(C)n1c(-c2ccccc2)nc2c(NCCOC)nc(C)nc21 (configuration not stated),inactive
4,Nc1ccc(N=Nc2ccccc2)c(N)n1,"inconclusive: 12.6 µM [quencher, side channel, partial curve] and inconclusive: 28.2 µM [quencher, side channel, partial curve] and inconclusive: 31.6 µM [quencher, side channel, partial curve]"
5,O=C1c2cc(O)cc(O)c2OC[C@@H]1c1ccc(O)c(O)c1,inactive
6,CC(C)NC(=O)c1ccc(S(=O)(=O)N(C)C)cc1,inactive
7,Cc1cc(NC(=O)c2sc(Nc3ccc(F)c(Cl)c3)nc2N)no1,"inconclusive: 3.16 µM [quencher, side channel, full curve]"
8,COc1cccc(NS(=O)(=O)c2c(C)cc(C)cc2C)c1,"inconclusive: 31.6 µM [quencher, single point]"
9,Cc1ccc2nnc(Cl)n2n1,"inconclusive: 39.8 µM [inhibitor, single point]"
10,O=C(/C=C/c1ccccc1)NCc1ccco1,"inconclusive: 3.98 µM [inhibitor, partial curve]"
11,CCOC(=O)/C(N=Nc1cc(C(=O)O)cc(C(=O)O)c1)=C(\O)CCl,"inconclusive: 22.4 µM [inhibitor, partial curve]"
12,CC[C@@H](C)[C@H](CNC)NC[C@@H](Cc1cccc2ccccc12)NCCc1cccc(C(F)(F)F)c1,active: 31.6 µM
13,CC(=O)Nc1ccc(C2=NN(c3ccccc3)C(c3ccccc3)C2)cc1 (configuration not stated),"inconclusive: 6.31 µM [quencher, side channel, partial curve]"
14,COc1ccc(C2(O)CC3CCC(C2)N3c2nc(C)cc(C)c2C#N)cc1 (configuration not stated),inactive
15,CC1=NN(c2ccccc2C(=O)O)C(=O)C1N=Nc1ccccc1 (configuration not stated),"inconclusive: 14.1 µM [quencher, side channel, partial curve]"
16,O=C(NCc1ccccc1)c1ccc2c(=O)[nH]c3c(C(=O)NCC4CCCO4)sc(=S)n3c2c1 (configuration not stated),"inconclusive: 14.1 µM [quencher, side channel, partial curve]"
17,CCOC(=O)C1=C(CSc2nc3c(cc2C#N)CN(C)CC3)OC(N)=C(C#N)C1c1ccc(F)cc1 (configuration not stated),"inconclusive: 31.6 µM [quencher, side channel, single point]"
18,CC(C)(C)c1nnc2sc(SC/C(O)=C(\C#N)c3nc4ccccc4[nH]3)nn2c1=O,"inconclusive: 31.6 µM [quencher, single point]"
